Experimental findings from the RNAGym collection of RNA variant scans (doi:10.7554/elife.90254) are described below.

Read counts are not given, so values of variants with three or more changes are uncertain.

B1: LINE1-mini (parent)
chain: GGCAGAGCUCAACACAGCGUGGCAAAGUGGCUGUGGCUAGACUGCC

In the series the parent is B1. Nature of the series: self-cleavage, relative activity (ratio to wild type); higher = more cleavage; in vitro, sequencing; the parent is a self-cleaving ribozyme.
With GGCAGAGCUCAACACAGCCUGGCAAACUGGCGGUGGCUAGACUGCC, the self-cleavage was determined as 0.09.
As to GGCAGAGCUCAACACAGCCUUACAAAGUGUCUGAGGCUAGACUCCC, the self-cleavage stood at 0.07.
GGCAGAGCUCAACACAGCCUGGCAAAGUGGCUGUUGCCAGACUGCC: the self-cleavage was 0.03.
Under GGCAGAGCUCAACACAGCCUCGCAAAGUGCCUGUGGCUAGACUGCC stands 1.01; under GGCAGAGCUCAACACAGCUUGGAAAAGUGGCUGUGGCUAGACUGCA, 2.58; under GGCAGAGCUCAACACAGCCUGGCAAACUGGCUGUGGCUCGACUGCC, 0.
Regarding GGCAGAGCUCAACACAGCUUAGCAAAUUGGCUAUGGCAAGACUGCC, the self-cleavage was 0.1.
With GGCAGAGCUCAACACAGCCUGGCAAAAUGGCUGGGGCUAGACUGCC the figure was 0.1; with GGCAGAGCUCAACACAGCCUGACAAAGUGGAAGUAGCUAGACUGCC, 0.06; with GGCAGAGCUCAACACAGCUUGGACAAGUGGCUCUGGCUAGACUGCC, 0.08.
With GGCAGAGCUCAACACAGCUUGGCAUAGUGGGUGUGGCUAGACUGCC the figure was 0.09; with GGCAGAGCUCAACACAGCUUGGCGAAGUGGCUGUGACUCGACUGCC, 1.16; with GGCAGAGCUCAACACAGCCUUGCAAAGUGGCCGUGGCUAGACUACC, 0.04.
GGCAGAGCUCAACACAGCUUGGCAUAGUGGCUCUGGCUAGAAUGCC: the self-cleavage is 0.03.
As to GGCAGAGCUCAACACAGCCUGGCAAAGUAGCUGUGGCUAGACUGAC, the self-cleavage was 0.34.
Under GGCAGAGCUCAACACAGCUUGGCGACGUGGCUGUGGCUUGGCUGCC stands 0.09.
With GGCAGAGCUCAACACAGCCGGGCAAAGUGGCUUUGGCUAGACUGCC the figure was 0.1.
As to GGCAGAGCUCAACACAGCCAGGCAAAGUGGCUGUGGCUAGAAUGCA, the self-cleavage is 1.03.
With GGCAGAGCUCAACACAGCUUGGAAAAGUGGCUGUGGCUACUCUGGC the figure was 0.02; with GGCAGAGCUCAACACAGCUUGGCUAGGUGGCUGUGCCUAGAUUGCC, 0.03; with GGCAGAGCUCAACACAGCUUAGCAUUGUGGCUGUGGCUAGACUGCC, 2.68.
With GGCAGAGCUCAACACAGCUUGGCACAGUGGCUGUGGCCAGACUGCC the figure was 0.27; with GGCAGAGCUCAACACAGCCUAGCAAAGUGGCUGUUGUUAGACUGCC, 0.02.
Under GGCAGAGCUCAACACAGCCUAGCAAAGUGGUUGUGGCUAGGCUGCC stands 0.04; under GGCAGAGCUCAACACAGCCUGGCAAAGUGGCUGUGGCUAGACGUCC, 0.07; under GGCAGAGCUCAACACAGCCAGGCAAAGUGGCUGUGGCUAGACUGCA, 1.41.
On to GGCAGAGCUCAACACAGCCUGGGAAAGUGGCUCUGGCUAAACUGCC, for which the self-cleavage was found to be 0.02.
For the variant GGCAGAGCUCAACACAGCUUGGCAAAGUGGCUGUGGUUAGUCUGCC, the self-cleavage turned out to be 0.04.
As to GGCAGAGCUCAACACAGCCGGGCAAAGUGGCUGUGGCUAAACUGCC, the self-cleavage came to 0.02.
With GGCAGAGCUCAACACAGCCUGGCAAAGUGGCUGUGGCGAUAGUGCC the figure was 0.01; with GGCAGAGCUCAACACAGCCUGGCAAAGUGGUCGUGGCUAGACUGCC, 0.1; with GGCAGAGCUCAACACAGCUUGGCAAAGUGGCUGUGGAUAGAGUGCC, 0.03.
Turning to GGCAGAGCUCAACACAGCUUAGCAAAGUGGUUGUGGCUGGACUUCC, the self-cleavage amounted to 0.15.
Under GGCAGAGCUCAACACAGCUUGGCAAGGUGGCUGUGACUAAACUGCC stands 0.05.
As for GGCAGAGCUCAACACAGCCGGGCAAAGUCCCUGUUGCUAGACUGCC, the self-cleavage came out at 0.03.
Turning to GGCAGAGCUCAACACAGCCUGGCAAAGUGACUGUGGCUAGACAGCC, the self-cleavage was 0.06.
Take GGCAGAGCUCAACACAGCUUGGGAAAGUGGCUGUGGCUAGACUCAC: the self-cleavage turned out to be 0.01.
With GGCAGAGCUCAACACAGCCUGACAAAGUGGCUGUAGCUAGAUUGCC the figure was 0.08; with GGCAGAGCUCAACACAGCUUGGCAGCGUGGCUGUGGCUAAACUGCC, 0.02.
Under GGCAGAGCUCAACACAGCUUGGCAGAGUGGCUGUGGCUACACUGCC stands 0.03; under GGCAGAGCUCAACACAGCCUGGUAAAGUGGCUGUGGUGAGACUACC, 0.01; under GGCAGAGCUCAACACAGCCUUGCAAAGUGGCUGUGGCAAGCCUGCC, 0.06.
Under GGCAGAGCUCAACACAGCCUGGCAAAGUGGCUGUGGCUAGACUACU stands 0.05; under GGCAGAGCUCAACACAGCCAAGCAAAGUUGCUGUGGUUAGACUGCC, 0.01; under GGCAGAGCUCAACACAGCCUGGUAGAGUGGCUGUGGCUACACUGCC, 0.1.
GGCAGAGCUCAACACAGCCAAGCAAAGUGGAUGCGGCUAGACUGCC: the self-cleavage came to 0.02.
For the variant GGCAGAGCUCAACACAGCUUGGCAAAGUGGUUGUUGCUAGACUGCC, the self-cleavage was 0.02.
Under GGCAGAGCUCAACACAGCUUGGCAAAGUGGCUGUGGAUAGCCUGCC stands 0.
For the variant GGCAGAGCUCAACACAGCCUGGCAAAGUUGCUGUGGCGAGACUGCG, the self-cleavage worked out at 0.04.
With GGCAGAGCUCAACACAGCUUGGGGAAGUGGCUGUGGCUAGACUGCC the figure was 0.8; with GGCAGAGCUCAACACAGCCUGACAAAGUGGCUGUGGCUAGCCUGCC, 0.04; with GGCAGAGCUCAACACAGCCUGGCAAAGUGACUGAGGCUAGACUGCC, 0.04.
With GGCAGAGCUCAACACAGCUUGGCAACGUGGUUGUGGCUAGACUGCC the figure was 0.52; with GGCAGAGCUCAACACAGCUUGGUAAAGUAGCUGUUGCUAGACUGCC, 0.05.
With GGCAGAGCUCAACACAGCCUGGCAAAUUGGUUGUGGCCAGACUGCC the figure was 0.1.
For the variant GGCAGAGCUCAACACAGCCUGGCAAAGUGGCUGCGGCUAGACUGCA, the self-cleavage was found to be 0.21.
